The RNAGym collection of RNA variant scans (doi:10.1101/gad.245936.114)
Variants at the floor of the assay are shown more often than the library holds them.

B1: tRNA (parent)
chain: CUCUCGGUAGCCAAGUUGGUUUAAGGCGCAAGACUUUAAUUUAUCACUACGAAAUCUUGAGAUCGGGCGUUCGACUCGCCCCCGGGAGAUUUUUUCCUCGAGCAA

Variants of: B1
Assay: nonsense suppression (GFP-seq) (ratio to wild type); higher = more function; SUP4oc tRNA, yeast GFP reporter sort-seq
Summary of the method: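 Each variant's nonsense suppression (GFPSEQ) is a cell-share-weighted bin median GFP/RFP relative to the unmutated parent tRNA. Yeast with genome-integrated tRNA variants from a ~3% random-mutation library, a galactose-driven GFP ochre reporter and RFP were grown in raffinose/galactose medium with 80 mg/L adenine, then sorted into GFP/RFP bins for Illumina sequencing. Variants needed ≥100 reads and ≥30 cells.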

Point of comparison: G26C A60C, nonsense suppression 0.027. Against it:
- G25U C27G G28C U35G U70G — lower, ≤ 0.026
- G25U C29U U35C C77U — lower, ≤ 0.026
- G25U C34A U71A U76A — lower, ≤ 0.026
- G25U C34G G85A — lower, ≤ 0.026
- G25U C34U G59A — higher, 1.15
- G25U C56A — lower, ≤ 0.026
- G25U C56U U71C — lower, ≤ 0.026
- G25U C68G — lower, ≤ 0.026
- G25U C77A — lower, ≤ 0.026
- G25U C82U — lower, ≤ 0.026
- G25U G26A — lower, ≤ 0.026
- G25U G26A A74C — lower, ≤ 0.026
- G25U G26C C27U U57A — lower, ≤ 0.026
- G25U G26C C64G C79U — lower, ≤ 0.026
- G25U G28A — lower, ≤ 0.026
- G25U G28U G65C — lower, ≤ 0.026
- G25U G32A C34G — lower, ≤ 0.026
- G25U G59C — lower, ≤ 0.026
- G25U G61A C82G G88U — lower, ≤ 0.026
- G25U G61A G67U — lower, ≤ 0.026
- G25U G61C — lower, ≤ 0.026
- G25U G61C C81U — lower, ≤ 0.026
- G25U G61U A62G — lower, ≤ 0.026
- G25U G66U G78C — lower, ≤ 0.026
- G25U G67C — lower, ≤ 0.026
- G25U G67C C77G G78C — lower, ≤ 0.026
- G25U G67C C79A — lower, ≤ 0.026
- G25U G67U G86A — lower, ≤ 0.026
- G25U G67U U76A — lower, ≤ 0.026
- G25U G85A — lower, ≤ 0.026
- G25U G86A — lower, ≤ 0.026
- G25U U35C — lower, ≤ 0.026
- G25U U35G — lower, ≤ 0.026
- G25U U55G G85A — lower, ≤ 0.026
- G25U U57G G66C G88U — lower, ≤ 0.026
- G25U U63C — lower, ≤ 0.026
- G25U U63C U76G — lower, ≤ 0.026
- G25U U63G — higher, 0.0371
- G25U U71C — lower, ≤ 0.026
- G25U U71G G84U — lower, ≤ 0.026
- G26A A30C G73C G88U — lower, ≤ 0.026
- G26A A30C U71G — lower, ≤ 0.026
- G26A A30G U63G — lower, ≤ 0.026
- G26A A31C — lower, ≤ 0.026
- G26A A31G C34U A62G — lower, ≤ 0.026
- G26A A87C — lower, ≤ 0.026
- G26A A89C — lower, ≤ 0.026
- G26A A89G — lower, ≤ 0.026
- G26A C34A — lower, ≤ 0.026
- G26A C34A U70G — lower, ≤ 0.026
- G26A C34U U55C C56G U63A — lower, ≤ 0.026
- G26A C56A — lower, ≤ 0.026
- G26A C56A G67A — lower, ≤ 0.026
- G26A C56G U76G — lower, ≤ 0.026
- G26A C68A — lower, ≤ 0.026
- G26A C72G — lower, ≤ 0.026
- G26A C77A — lower, ≤ 0.026
- G26A C77U — lower, ≤ 0.026
- G26A C82A G86A — lower, ≤ 0.026
- G26A G32A — lower, ≤ 0.026
- G26A G59A — lower, ≤ 0.026
- G26A G61C C68A C83U — lower, ≤ 0.026
- G26A G65A G86A — lower, ≤ 0.026
- G26A G66A C77G C79G C82U — lower, ≤ 0.026
- G26A G66U — lower, ≤ 0.026
- G26A G88U — lower, ≤ 0.026
- G26A U57C — lower, ≤ 0.026
- G26A U57C G67C G73A C82A — lower, ≤ 0.026
- G26A U58G A62G G66C U71C — lower, ≤ 0.026
- G26A U70C C72G U76A C81G — lower, ≤ 0.026
- G26A U71G — lower, ≤ 0.026
- G26A U76C — lower, ≤ 0.026
- G26C A30C — lower, ≤ 0.026
- G26C A31C — lower, ≤ 0.026
- G26C A31G U76C — lower, ≤ 0.026
- G26C A31U G84A — lower, ≤ 0.026
- G26C A33G C77G — lower, ≤ 0.026
- G26C A33G G84C — lower, ≤ 0.026
- G26C A54C G73C U76G G78C — lower, ≤ 0.026
- G26C A54G U63G — lower, ≤ 0.026
- G26C A60G — lower, ≤ 0.026
- G26C A62U U71C — lower, ≤ 0.026
- G26C C27G C34G A74C C79A G86U — lower, ≤ 0.026
- G26C C27U — lower, ≤ 0.026
- G26C C29A G84A — lower, ≤ 0.026
- G26C C29G — higher, 0.0685
- G26C C29G C56A — lower, ≤ 0.026
- G26C C34A C83A — lower, ≤ 0.026
- G26C C68U — lower, ≤ 0.026
- G26C C75A — lower, ≤ 0.026
- G26C C77U — lower, ≤ 0.026
- G26C G28A C29U — lower, ≤ 0.026
- G26C G28C C29G C72G C81G — lower, ≤ 0.026
- G26C G61C — lower, ≤ 0.026
- G26C G61U U63A — lower, ≤ 0.026
- G26C G66C — lower, ≤ 0.026
- G26C G67A G86C — lower, ≤ 0.026
- G26C G69A U76A C82A — lower, ≤ 0.026
- G26C G69C — lower, ≤ 0.026
- G26C G78U C79A G88U — lower, ≤ 0.026
- G26C G78U C82A — lower, ≤ 0.026
- G26C G86C — lower, ≤ 0.026
- G26C U35G — lower, ≤ 0.026
- G26C U55C — higher, 0.0525
- G26C U55C G61C G65A G84A — lower, ≤ 0.026
- G26C U55C G78U — lower, ≤ 0.026
- G26C U57A — lower, ≤ 0.026
- G26C U57A A89C — lower, ≤ 0.026
- G26C U57A G73A — lower, ≤ 0.026
- G26C U57G A60C — lower, ≤ 0.026
- G26C U63A C68U G73A — lower, ≤ 0.026
- G26C U63G — lower, ≤ 0.026
- G26U A30C — lower, ≤ 0.026
- G26U A30G C56G U57C G86A — lower, ≤ 0.026
- G26U A33G A60G G86U G88C — lower, ≤ 0.026
- G26U A33U A89G — lower, ≤ 0.026
- G26U A54G U55A G78U — lower, ≤ 0.026
- G26U A54U — lower, ≤ 0.026
- G26U A60C G67U G85U — lower, ≤ 0.026
- G26U A60G — lower, ≤ 0.026
- G26U A60G G65A — lower, ≤ 0.026
- G26U A89C — lower, ≤ 0.026
- G26U C27G A30G U57G C64U G65C — lower, ≤ 0.026
- G26U C27U A62C U70G G86C G88A — lower, ≤ 0.026
- G26U C29A — lower, ≤ 0.026
- G26U C29G A30U G32C G85U — lower, ≤ 0.026
- G26U C29G C68G — lower, ≤ 0.026
- G26U C29U — lower, ≤ 0.026
- G26U C29U U71C — lower, ≤ 0.026
- G26U C34A A87U — lower, ≤ 0.026
- G26U C34U — lower, ≤ 0.026
- G26U C34U G84C G88C — lower, ≤ 0.026
- G26U C56A — lower, ≤ 0.026
- G26U C56A U57G A60U — lower, ≤ 0.026
- G26U C64G — lower, ≤ 0.026
- G26U C64U G86C — lower, ≤ 0.026
- G26U C72U C79G G86A — lower, ≤ 0.026
- G26U C75G C81U C83G — lower, ≤ 0.026
- G26U C82A G84U — lower, ≤ 0.026
- G26U G28A — lower, ≤ 0.026
- G26U G28A G66C — lower, ≤ 0.026
- G26U G28C A31G A74U — lower, ≤ 0.026
- G26U G32U — lower, ≤ 0.026
- G26U G61U G66C G86U — lower, ≤ 0.026
- G26U G65C U71A G78U — lower, ≤ 0.026
- G26U G66U — lower, ≤ 0.026
- G26U G67C U70G C72A — lower, ≤ 0.026
- G26U G67U — lower, ≤ 0.026
- G26U G69C — lower, ≤ 0.026
- G26U G69U C79U — lower, ≤ 0.026
- G26U G73C — lower, ≤ 0.026
- G26U G88A — lower, ≤ 0.026
- G26U G88U — lower, ≤ 0.026
- G26U U55C — lower, ≤ 0.026
- G26U U57A G88A — lower, ≤ 0.026
- G26U U57C G85A — lower, ≤ 0.026
- G26U U58G G61A C75G — lower, ≤ 0.026
- G26U U71C — lower, ≤ 0.026
- G26U U71G G85U — lower, ≤ 0.026
- C27A — lower, ≤ 0.026
- C27A A30G G61U C72U G85A — lower, ≤ 0.026
- C27A A31C — lower, ≤ 0.026
- C27A A31G G78C — lower, ≤ 0.026
- C27A A31G U58A — lower, ≤ 0.026
- C27A A33C G66U — lower, ≤ 0.026
- C27A A33C U57C C81U — lower, ≤ 0.026
